These results are taken from publication PMC12820563, “FoxP3 forms a head-to-head dimer in vivo and stabilizes its multimerization on adjacent microsatellites”.

The other results are listed elsewhere or left out.

The test has as its target T1, MBP-FoxP1dN (Mus musculus, UniProt P58462 326-579).
T1 sequence: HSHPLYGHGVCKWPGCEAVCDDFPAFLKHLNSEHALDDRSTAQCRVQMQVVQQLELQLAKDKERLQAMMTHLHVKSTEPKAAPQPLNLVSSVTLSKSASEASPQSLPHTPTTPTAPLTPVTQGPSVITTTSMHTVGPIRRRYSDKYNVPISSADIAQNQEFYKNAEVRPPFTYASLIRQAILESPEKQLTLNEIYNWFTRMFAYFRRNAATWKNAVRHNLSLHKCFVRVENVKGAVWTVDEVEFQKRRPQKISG
Kind of test: PD-seq (MBP pull-down with sequencing); 20 mM Tris-HCl pH 7.5, 100 mM NaCl, 1.5 mM MgCl2, 0.4 uM protein, 0.1 uM dsDNA library, 30 min, room temperature, amylose pull-down; high values mean tight binding. The settings on record: protein: recombinant; tags: His6-MBP; chain copies: 2; dsDNA, one strand shown. The method, boiled down: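 In Tris pH 7.5 buffer with NaCl and MgCl2, 0.4 µM His6-MBP-tagged mouse FoxP3 or FoxP1 fragment lacking the N-terminus, from E. coli, met 0.1 µM Klenow-filled double-stranded degenerate DNA library for 30 min at room temperature. Three washes on amylose resin followed capture of the complexes, then proteinase K release of DNA, PCR barcoding and Illumina sequencing. Binding is taken as pooled-replicate reads-per-million enrichment of pull-down relative to input.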
Take “GATGATTGTTCTCCCAGCTGATGAATTTAAGTAGTCGAGTAAACAAATTTTCCTAATCTTTCTGTTCAAGCGCCATCTAC”: the binding signal is 0.942 RPM ratio (pull-down/input). Next, “GATGATTGTTCTCCCAGCTGATGAATTGAGAGGTTCGAGTAAACAAATTTTCCTAATCTTTCTGTTCAAGCGCCATCTAC”: 0.733 RPM ratio (pull-down/input); “GATGATTGTTCTCCCAGCTGATGAATTCGATTTTTCGAGTAAACAAATTTTCCTAATCTTTCTGTTCAAGCGCCATCTAC”: 0.928 RPM ratio (pull-down/input). Take “GATGATTGTTCTCCCAGCTGATGAATTGATACGGTCGAGTAAACAAATTTTCCTAATCTTTCTGTTCAAGCGCCATCTAC”: the binding signal was 0.934 RPM ratio (pull-down/input). The figure for “GATGATTGTTCTCCCAGCTGATGAATTTAGATATTCGAGTAAACAAATTTTCCTAATCTTTCTGTTCAAGCGCCATCTAC” is 1.06 RPM ratio (pull-down/input); for “GATGATTGTTCTCCCAGCTGATGAATTAGAACTATCGAGTAAACAAATTTTCCTAATCTTTCTGTTCAAGCGCCATCTAC” it is 0.938 RPM ratio (pull-down/input). Next, “GATGATTGTTCTCCCAGCTGATGAATTTACCGTGTCGAGTAAACAAATTTTCCTAATCTTTCTGTTCAAGCGCCATCTAC”: 1.12 RPM ratio (pull-down/input); “GATGATTGTTCTCCCAGCTGATGAATTAACACTGTCGAGTAAACAAATTTTCCTAATCTTTCTGTTCAAGCGCCATCTAC”: 1.01 RPM ratio (pull-down/input); “GATGATTGTTCTCCCAGCTGATGAATTCTGGCAATCGAGTAAACAAATTTTCCTAATCTTTCTGTTCAAGCGCCATCTAC”: 1.01 RPM ratio (pull-down/input). As to “GATGATTGTTCTCCCAGCTGATGAATTCCAGACTTCGAGTAAACAAATTTTCCTAATCTTTCTGTTCAAGCGCCATCTAC”, the binding signal is 0.779 RPM ratio (pull-down/input). For “GATGATTGTTCTCCCAGCTGATGAATTCTAGATTTCGAGTAAACAAATTTTCCTAATCTTTCTGTTCAAGCGCCATCTAC”, the binding signal is 0.859 RPM ratio (pull-down/input). For “GATGATTGTTCTCCCAGCTGATGAATTTCAATAATCGAGTAAACAAATTTTCCTAATCTTTCTGTTCAAGCGCCATCTAC”, the binding signal was 1.31 RPM ratio (pull-down/input).

For “GATGATTGTTCTCCCAGCTGATGAATTGTAAGGATCGAGTAAACAAATTTTCCTAATCTTTCTGTTCAAGCGCCATCTAC”, the binding signal is 1.01 RPM ratio (pull-down/input). For the sequence “GATGATTGTTCTCCCAGCTGATGAATTACGGTCGTCGAGTAAACAAATTTTCCTAATCTTTCTGTTCAAGCGCCATCTAC”, the binding signal is 0.9 RPM ratio (pull-down/input). Next, “GATGATTGTTCTCCCAGCTGATGAATTTAAAGCCTCGAGTAAACAAATTTTCCTAATCTTTCTGTTCAAGCGCCATCTAC”: 0.862 RPM ratio (pull-down/input); “GATGATTGTTCTCCCAGCTGATGAATTACGCCCATCGAGTAAACAAATTTTCCTAATCTTTCTGTTCAAGCGCCATCTAC”: 1 RPM ratio (pull-down/input); “GATGATTGTTCTCCCAGCTGATGAATTGACTAGTTCGAGTAAACAAATTTTCCTAATCTTTCTGTTCAAGCGCCATCTAC”: 1.08 RPM ratio (pull-down/input). The figure for “GATGATTGTTCTCCCAGCTGATGAATTTTACTGATCGAGTAAACAAATTTTCCTAATCTTTCTGTTCAAGCGCCATCTAC” is 0.894 RPM ratio (pull-down/input). As for “GATGATTGTTCTCCCAGCTGATGAATTTAACATGTCGAGTAAACAAATTTTCCTAATCTTTCTGTTCAAGCGCCATCTAC”, the binding signal is 0.908 RPM ratio (pull-down/input). The figure for “GATGATTGTTCTCCCAGCTGATGAATTAAGCGTATCGAGTAAACAAATTTTCCTAATCTTTCTGTTCAAGCGCCATCTAC” is 1.07 RPM ratio (pull-down/input).

On to “GATGATTGTTCTCCCAGCTGATGAATTATTACTTTCGAGTAAACAAATTTTCCTAATCTTTCTGTTCAAGCGCCATCTAC”, for which the binding signal was 1.27 RPM ratio (pull-down/input).

Regarding “GATGATTGTTCTCCCAGCTGATGAATTATGCCCTTCGAGTAAACAAATTTTCCTAATCTTTCTGTTCAAGCGCCATCTAC”, the binding signal is 0.986 RPM ratio (pull-down/input).

For the sequence “GATGATTGTTCTCCCAGCTGATGAATTTCGAATGTCGAGTAAACAAATTTTCCTAATCTTTCTGTTCAAGCGCCATCTAC”, the binding signal is 0.898 RPM ratio (pull-down/input).

Take “GATGATTGTTCTCCCAGCTGATGAATTGTAAAACTCGAGTAAACAAATTTTCCTAATCTTTCTGTTCAAGCGCCATCTAC”: the binding signal was 1.04 RPM ratio (pull-down/input).

On to “GATGATTGTTCTCCCAGCTGATGAATTTAGTCCTTCGAGTAAACAAATTTTCCTAATCTTTCTGTTCAAGCGCCATCTAC”, for which the binding signal is 0.909 RPM ratio (pull-down/input). The figure for “GATGATTGTTCTCCCAGCTGATGAATTAACCGACTCGAGTAAACAAATTTTCCTAATCTTTCTGTTCAAGCGCCATCTAC” is 0.787 RPM ratio (pull-down/input). Consider “GATGATTGTTCTCCCAGCTGATGAATTGAAATAATCGAGTAAACAAATTTTCCTAATCTTTCTGTTCAAGCGCCATCTAC”, for which the binding signal was 1.22 RPM ratio (pull-down/input). The figure for “GATGATTGTTCTCCCAGCTGATGAATTAGTCGCCTCGAGTAAACAAATTTTCCTAATCTTTCTGTTCAAGCGCCATCTAC” is 0.938 RPM ratio (pull-down/input). The figure for “GATGATTGTTCTCCCAGCTGATGAATTAGGTACTTCGAGTAAACAAATTTTCCTAATCTTTCTGTTCAAGCGCCATCTAC” is 0.934 RPM ratio (pull-down/input). The figure for “GATGATTGTTCTCCCAGCTGATGAATTACGCCCGTCGAGTAAACAAATTTTCCTAATCTTTCTGTTCAAGCGCCATCTAC” is 0.947 RPM ratio (pull-down/input); for “GATGATTGTTCTCCCAGCTGATGAATTTACTTTCTCGAGTAAACAAATTTTCCTAATCTTTCTGTTCAAGCGCCATCTAC” it is 1.32 RPM ratio (pull-down/input); for “GATGATTGTTCTCCCAGCTGATGAATTTTCGCACTCGAGTAAACAAATTTTCCTAATCTTTCTGTTCAAGCGCCATCTAC” it is 0.948 RPM ratio (pull-down/input).
